# Assay results: paper PMC12040169 (PLOS Biology, 2025)
# The other results are listed elsewhere or left out.
# Tested on: T1, C. trachomatis L2/434/Bu expressing GFP (CTL2-GFP)
# T1 construct: L2/434/Bu GFP intracellular growth in HeLa cells
# Design: species or system HeLa; C. trachomatis total inclusion area by high-content imaging, normalised to DMSO
# Conditions: total inclusion area; 28.5 h, 10 µM; inhibitor
# Procedure, shortened: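 High-content imaging followed the bulk GFP/resorufin measurement: fixed, Hoechst-stained cells were scored for GFP inclusions and host nuclei per well. Total inclusion area and count served as growth proxies, nuclei number as the viability proxy. MIC calculation matched the bulk assay.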
row,Compound,% of control remaining
1,COc1ccc(CNC(=O)C2CCCN(S(=O)(=O)c3cccs3)C2)cc1 (stereo not shown) [CBK304628],37.822
2,COc1nccnc1N1CCN(CCCC#N)CC1 [CBK084225],95.185
3,O=C(NCCc1c[nH]cn1)c1ccccc1-n1cccc1 [CBK161000],92.175
4,Cc1cc(C)nc(N2CCC(C3CC=CCN(CCc4ccccc4)C3=O)CC2)n1 (stereo not shown) [CBK285575],76.3487
5,O=C(O)CCc1ccc(-c2cccs2)n1-c1ccc(Cl)c(Cl)c1 [CBK264797],121.899
6,Cn1nc2c(cc1=O)CN(C(=O)c1ccoc1)CC2 [CBK304330],73.1411
7,Cc1cc(NS(=O)(=O)c2csc3ccccc23)n(C)n1 [CBK067251],105.299
8,Cc1cc(C(=O)Nc2cccc3cc[nH]c23)ccc1Cl [CBK160078],100.661
9,CC1(C)CC(N2CN(C3CC(C)(C)NC(C)(C)C3)CN(C3CC(C)(C)NC(C)(C)C3)C2)CC(C)(C)N1 [CBK261985],99.804
10,COc1ccc2c(C)c(C(=O)NC(C)Cc3ccccn3)oc2c1 (stereo not shown) [CBK281424],99.0279
11,CN1CCN(CCCCn2nc3n(c2=O)-c2ccccc2OC3(C)C)CC1 [CBK023953C],56.7491
12,Cc1nc(-c2ccc(NC(=O)Cc3sc(C)nc3C)cc2)cs1 [CBK281404],50.887
13,O=C1CCC(CNS(=O)(=O)c2ccccc2Cl)N1 (stereo not shown) [CBK304850],30.8157
14,COc1ccc(Cl)cc1N1CCN(Cc2cc(OC)c(OC)c(OC)c2)CC1 [CBK126406],11.9082
15,COc1cc(S(=O)(=O)NC2CC(C)(C)NC(C)(C)C2)ccc1F [CBK266561],95.481
16,Nc1nc(=O)n([C@@H]2O[C@H](CO)[C@H](O)C2O)cc1CO (stereo partly shown) [CBK201160],107.488
17,Cc1cc(C)n(CC(O)CN2C(=O)NC(C)(C)C2=O)n1 (stereo not shown) [CBK264811],98.9081
18,Cc1ccc(C(=O)NCc2cccc(COCc3ccco3)c2)cc1F [CBK297750],89.0805
19,Cc1cc(COC(=O)N2CCC(CO)CC2)cc(C)n1 [CBK200152],94.4493
20,Cc1ccc(C(=O)C(OC(=O)c2cc(O)nc3ccccc23)c2ccccc2)cc1C (stereo not shown) [CBK265515],99.2903
21,CN1C[C@@H](C(=O)N2CCCCCC2)[C@@]2(CCc3ccccc3C2=O)C1 [CBK284590],71.3417
22,CCc1ccc2c(c1)C(CCNC(=O)c1ncoc1C(F)(F)F)C(=O)N2 (stereo not shown) [CBK304725],83.1546
